# The supplement of paper PMC8728848
# Some of the results follow.
# B1: Na-CTL-1 (Necator americanus) (protein)
# chain: MQRSFLLLLVVLAGAWAVNTTIPLKLMGGFTPMKYQCVGRVSDIWADVLFLIESSDMITKSGFRQVIAFITATTKKMTIGQDEKQTRVGFITYGEEAKLIYDLDHWRSTEKLSDLVQKIPYVKSSGTNIAAAIALANKVFNSPTHRPNVPKVMVIVANGLKKGSQNPIPVATAFKDFGGIIITIEYTQYDNIQVPILKKIASEGYNIRSNDEDFSVRTLTNMLLQANCFCPDHYVPFRVNNPEFGCFVTAKIPSMWRDAAEMCRAVEEGKLVKVENEEKAAFIMKLVGPKKEAWIGLRYYGNKFQWTDGTKLNADDFNLWPEDIKELNGPHCVSMYQDQKDKKYYWRAGKCLEDMRYVCEVQPCSASNYCSEPVFMYRQKHRALLPAPPPPPN
# What was measured:
# Test in all cases: glycan array binding signal (z-score within array); higher = stronger binding
# Conditions in all cases: glycan notation: IUPAC condensed, linker removed
# [1] = target: Fuc(a1-2)Gal(b1-4)[Fuc(a1-3)]GlcNAc(b1-2)Man(a1-3)[Fuc(a1-2)Gal(b1-4)[Fuc(a1-3)]GlcNAc(b1-2)Man(a1-6)]Man(b1-4)GlcNAc(b1-4)[Fuc(a1-6)]GlcNAc
# Method in brief: (§1)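 Glycan array data were curated from 3228 arrays in the Consortium for Functional Glycomics database and kept only where the protein sequence was available. Glycan names were converted to IUPAC-condensed notation, and columns mapping to the same glycan were averaged. The binding signal is a within-array Z-score, averaged across arrays of the same protein sequence at different concentrations or buffers and across linkers. Negative Z-scores can be read as non-binding.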
# [2] = target: Fuc(a1-2)Gal(b1-4)[Fuc(a1-3)]GlcNAc(b1-2)[Fuc(a1-2)Gal(b1-4)[Fuc(a1-3)]GlcNAc(b1-4)]Man(a1-3)[Fuc(a1-2)Gal(b1-4)[Fuc(a1-3)]GlcNAc(b1-2)Man(a1-6)]Man(b1-4)GlcNAc(b1-4)GlcNAc
# Method in brief: as §1
# [3] = target: Fuc(a1-2)Gal(b1-4)[Fuc(a1-3)]GlcNAc(b1-3)Gal(b1-4)[Fuc(a1-3)]GlcNAc
# Method in brief: as §1
# [4] = target: Fuc(a1-2)Gal(b1-4)[Fuc(a1-3)]GlcNAc(b1-3)Gal(b1-4)[Fuc(a1-3)]GlcNAc(b1-3)Gal(b1-4)[Fuc(a1-3)]GlcNAc
# Method in brief: as §1
# [5] = target: Fuc(a1-2)Gal(b1-4)[Fuc(a1-3)]GlcNAc(b1-3)GalNAc
# Method in brief: as §1
# [6] = target: Fuc(a1-2)Gal(b1-4)[Fuc(a1-3)]GlcNAc(b1-3)[Neu5Ac(a2-6)Gal(b1-4)GlcNAc(b1-6)]Gal(b1-4)Glc
# Method in brief: as §1
# [7] = target: Fuc(a1-2)Gal3S(b1-4)GlcNAc
# Method in brief: as §1
# [8] = target: Fuc(a1-2)Gal6S(b1-3)GlcNAc
# Method in brief: as §1
# [9] = target: Fuc(a1-2)Gal6S(b1-3)GlcNAc6S
# Method in brief: as §1
# Fuc(a1-2)Gal6S(b1-4)Glc = target: Fuc(a1-2)Gal6S(b1-4)Glc
# Method in brief: as §1
# [10] = target: Fuc(a1-2)Gal6S(b1-4)Glc6S
# Method in brief: as §1
# Fuc(a1-2)[Gal(a1-3)]Gal = target: Fuc(a1-2)[Gal(a1-3)]Gal
# Method in brief: as §1
# [11] = target: Fuc(a1-2)[Gal(a1-3)]Gal(b1-3)GalNAc
# Method in brief: as §1
# [12] = target: Fuc(a1-2)[Gal(a1-3)]Gal(b1-3)GalNAc(b1-3)Gal(a1-4)Gal(b1-4)Glc
# Method in brief: as §1
# [13] = target: Fuc(a1-2)[Gal(a1-3)]Gal(b1-3)GlcNAc
# Method in brief: as §1
# [14] = target: Fuc(a1-2)[Gal(a1-3)]Gal(b1-3)GlcNAc(b1-2)Man(a1-3)[Fuc(a1-2)[Gal(a1-3)]Gal(b1-3)GlcNAc(b1-2)Man(a1-6)]Man(b1-4)GlcNAc(b1-4)GlcNAc
# Method in brief: as §1
# [15] = target: Fuc(a1-2)[Gal(a1-3)]Gal(b1-3)GlcNAc(b1-2)Man(a1-3)[Fuc(a1-2)[Gal(a1-3)]Gal(b1-3)GlcNAc(b1-2)Man(a1-6)]Man(b1-4)GlcNAc(b1-4)[Fuc(a1-6)]GlcNAc
# Method in brief: as §1
# [16] = target: Fuc(a1-2)[Gal(a1-3)]Gal(b1-3)GlcNAc(b1-3)GalNAc
# Method in brief: as §1
# [17] = target: Fuc(a1-2)[Gal(a1-3)]Gal(b1-3)GlcNAc(b1-6)GalNAc
# Method in brief: as §1
# [18] = target: Fuc(a1-2)[Gal(a1-3)]Gal(b1-4)Glc
# Method in brief: as §1
# [19] = target: Fuc(a1-2)[Gal(a1-3)]Gal(b1-4)GlcNAc
# Method in brief: as §1
# [20] = target: Fuc(a1-2)[Gal(a1-3)]Gal(b1-4)GlcNAc(b1-2)Man
# Method in brief: as §1
# [21] = target: Fuc(a1-2)[Gal(a1-3)]Gal(b1-4)GlcNAc(b1-2)Man(a1-3)[Fuc(a1-2)[Gal(a1-3)]Gal(b1-4)GlcNAc(b1-2)Man(a1-6)]Man(b1-4)GlcNAc(b1-4)GlcNAc
# Method in brief: as §1
# [22] = target: Fuc(a1-2)[Gal(a1-3)]Gal(b1-4)GlcNAc(b1-2)Man(a1-3)[Fuc(a1-2)[Gal(a1-3)]Gal(b1-4)GlcNAc(b1-2)Man(a1-6)]Man(b1-4)GlcNAc(b1-4)[Fuc(a1-6)]GlcNAc
# Method in brief: as §1
# [23] = target: Fuc(a1-2)[Gal(a1-3)]Gal(b1-4)GlcNAc(b1-3)GalNAc
# Method in brief: as §1
# [24] = target: Fuc(a1-2)[Gal(a1-3)]Gal(b1-4)GlcNAc(b1-3)[Fuc(a1-2)[Gal(a1-3)]Gal(b1-4)GlcNAc(b1-6)]GalNAc
# Method in brief: as §1
# [25] = target: Fuc(a1-2)[Gal(a1-3)]Gal(b1-4)GlcNAc(b1-6)GalNAc
# Method in brief: as §1
# [26] = target: Fuc(a1-2)[Gal(a1-3)]Gal(b1-4)[Fuc(a1-3)]Glc
# Method in brief: as §1
# [27] = target: Fuc(a1-2)[Gal(a1-3)]Gal(b1-4)[Fuc(a1-3)]GlcNAc
# Method in brief: as §1
# [28] = target: Fuc(a1-2)[Gal(a1-3)]Gal(b1-4)[Fuc(a1-3)]GlcNAc(b1-3)GalNAc
# Method in brief: as §1
# [29] = target: Fuc(a1-2)[Gal(a1-4)]Gal(b1-4)GlcNAc
# Method in brief: as §1
# [30] = target: Fuc(a1-2)[GalNAc(a1-3)]Gal
# Method in brief: as §1
# [31] = target: Fuc(a1-2)[GalNAc(a1-3)]Gal(b1-3)GalNAc(a1-3)[Fuc(a1-2)]Gal(b1-4)GlcNAc
# Method in brief: as §1
# [32] = target: Fuc(a1-2)[GalNAc(a1-3)]Gal(b1-3)GalNAc(b1-3)Gal(a1-4)Gal(b1-4)Glc
# Method in brief: as §1
# [33] = target: Fuc(a1-2)[GalNAc(a1-3)]Gal(b1-3)GlcNAc
# Method in brief: as §1
# [34] = target: Fuc(a1-2)[GalNAc(a1-3)]Gal(b1-3)GlcNAc(b1-2)Man(a1-3)[Fuc(a1-2)[GalNAc(a1-3)]Gal(b1-3)GlcNAc(b1-2)Man(a1-6)]Man(b1-4)GlcNAc(b1-4)GlcNAc
# Method in brief: as §1
# [35] = target: Fuc(a1-2)[GalNAc(a1-3)]Gal(b1-3)GlcNAc(b1-2)Man(a1-3)[Fuc(a1-2)[GalNAc(a1-3)]Gal(b1-3)GlcNAc(b1-2)Man(a1-6)]Man(b1-4)GlcNAc(b1-4)[Fuc(a1-6)]GlcNAc
# Method in brief: as §1
# [36] = target: Fuc(a1-2)[GalNAc(a1-3)]Gal(b1-3)GlcNAc(b1-3)GalNAc
# Method in brief: as §1
binder,measurement,setting,value
B1,glycan array binding signal (z-score),[1],0.449
same,glycan array binding signal (z-score),[2],-0.27
same,glycan array binding signal (z-score),[3],0.013
same,glycan array binding signal (z-score),[4],-0.334
same,glycan array binding signal (z-score),[5],0.056
same,glycan array binding signal (z-score),[6],-0.57
same,glycan array binding signal (z-score),[7],-0.06
same,glycan array binding signal (z-score),[8],-0.672
same,glycan array binding signal (z-score),[9],0.309
same,glycan array binding signal (z-score),Fuc(a1-2)Gal6S(b1-4)Glc,0.006
same,glycan array binding signal (z-score),[10],0.724
same,glycan array binding signal (z-score),Fuc(a1-2)[Gal(a1-3)]Gal,0.515
same,glycan array binding signal (z-score),[11],-0.176
same,glycan array binding signal (z-score),[12],-0.188
same,glycan array binding signal (z-score),[13],-0.198
same,glycan array binding signal (z-score),[14],-0.412
same,glycan array binding signal (z-score),[15],-0.485
same,glycan array binding signal (z-score),[16],-0.06
same,glycan array binding signal (z-score),[17],-0.471
same,glycan array binding signal (z-score),[18],0.185
same,glycan array binding signal (z-score),[19],-0.525
same,glycan array binding signal (z-score),[20],-0.401
same,glycan array binding signal (z-score),[21],0.031
same,glycan array binding signal (z-score),[22],0.317
same,glycan array binding signal (z-score),[23],-0.647
same,glycan array binding signal (z-score),[24],2.8
same,glycan array binding signal (z-score),[25],-0.539
same,glycan array binding signal (z-score),[26],-0.734
same,glycan array binding signal (z-score),[27],-0.339
same,glycan array binding signal (z-score),[28],0.08
same,glycan array binding signal (z-score),[29],0.263
same,glycan array binding signal (z-score),[30],-0.379
same,glycan array binding signal (z-score),[31],-0.489
same,glycan array binding signal (z-score),[32],0.014
same,glycan array binding signal (z-score),[33],-0.302
same,glycan array binding signal (z-score),[34],-0.509
same,glycan array binding signal (z-score),[35],-0.547
same,glycan array binding signal (z-score),[36],0.071
